In PubChem BioAssay AID1508642 (National Center for Advancing Translational Sciences (NCATS), 2021):
The campaign covered roughly 43,000 compounds. About 200 (0.47%) were called active. About 12% were inconclusive and are not listed. The call rests on the fitted dose curve; in most records, active means well fitted cell-killing curve with a large enough effect; inconclusive means small, poorly fitted or top-dose-only effect, or effect the other way; inactive means flat fitted curve, though single readings scatter. The list shows a part of the results.

Experiment: Cell viability qHTS assay in S16 Pmp22-F2sN cells; further: nearly all actives have a fitted effect of over 65% in size
Conditions: S16 Pmp22-F2sN Schwann cells viability, CellTiter-Glo, 24 h; series mostly up to 57.5 µM; activity change, negative = cytotoxicity: at the top concentration
Summary of the method: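 Used to flag compounds lowering reporter output through toxicity, this quantitative HTS measures ATP-based CellTiter-Glo luminescence in S16 Pmp22-F2sN Schwann cells after 24 h compound exposure at 37C.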
On the % scale 0 is the no-effect control and ±100 the full control effect.

| SMILES | activity change, negative = cytotoxicity |
| --- | --- |
| CC1=C(C(=O)Nc2cccc(F)c2)C2(CCCCCC2)OC1=O | inactive: -15.2% |
| COc1ccc(OC)c(NC(=O)C(Cc2ccccc2)NS(=O)(=O)c2ccc3c(c2)CCC(=O)N3)c1 (stereo unspecified) | inactive: -3.28% |
| CCC(=O)N1c2ccccc2CC1C(=O)NCCCN1CCN(c2ccc(F)cc2)CC1 (stereo unspecified) | inactive: 15.2% |
| Cc1cccc(C(=O)n2nc(-c3ccco3)nc2NCc2ccccc2)c1 | inactive: 1.33% |
| COc1ccc(NC(=O)C(=O)Nc2ccc3nc4n(c(=O)c3c2)CCCCC4)c(OC)c1 | inactive: 8.94% |
| CCN(CC)S(=O)(=O)c1ccc2c(c1)N(CC(=O)Nc1cccc(C(C)=O)c1)C(=O)CO2 | inactive: 19.9% |
| O=C(Nc1ccc(Br)cc1)Nc1nc2c(s1)CCCCCC2 | inactive: 12.2% |
| O=C(COCc1cc(-c2ccc3c(c2)OCO3)on1)Nc1cccc(O)c1 | inactive: 6.29% |
| COc1cc(OC)c(NC(=O)c2nn(C)c3c2COc2ccccc2-3)cc1Cl | inactive: -4.58% |
| Cc1ccccc1NC(=O)Cn1nnc(C(=O)NCc2ccco2)c1N | inactive: -12.5% |
| CCOC(=O)c1cnc2cc(Cl)c(OC)cc2c1Nc1ccc(Br)cc1C | inactive: 1.67% |
| COc1ccccc1N1CCN(C(=O)C2CCN(S(=O)(=O)c3cccs3)CC2)CC1 | inactive: -0.331% |
| COc1ccccc1C(=O)NC1(C(F)(F)F)C(=O)NC(C)=C1C#N (stereo unspecified) | inactive: 10.6% |
| O=C(CSc1c2c(nc3ccc(Cl)cc13)CCCC2)N1CCN(c2ccc(Cl)cc2)CC1 | inactive: -1.66% |
| CCOc1ccc(OC(=O)c2sc3ncn(Cc4cccc(F)c4)c(=O)c3c2C)cc1 | inactive: 3.92% |
| CSc1ccc(CCNS(=O)(=O)c2cc(-c3cc(C)no3)ccc2C)cc1 | inactive: -1.63% |
| COc1ccc(Cn2nc3n(c2=O)-c2ccccc2OC3)cc1 | inactive: 1.92% |
| Cc1cccc(C(=O)Nc2nnc(S(=O)(=O)N3CCOCC3)s2)c1 | inactive: -12.1% |
| O=C(Nc1ccccc1)c1cc2c(-c3ccccc3)nn(-c3ccccc3)c2s1 | inactive: -16.3% |
| COc1ccccc1C(=O)Nc1nnc(S(=O)(=O)N2CCCCC2)s1 | inactive: 2.81% |
| COc1ccc(Cl)cc1NC(=O)c1c(NCc2cccnc2)sc2c1CCCC2 | inactive: -0.848% |
| Cc1ccccc1NC(=O)Cn1c(=O)n(Cc2ccco2)c(=O)c2ccc(C(=O)NC3CCCC3)cc21 | inactive: 7.6% |
| Cc1cc(-c2ccccc2)nc2cc(C(=O)Nc3ccc(Cl)c(Cl)c3)nn12 | inactive: -4.85% |
| COc1ccccc1NC(=O)CSc1ncc(CO)n1Cc1ccc(F)cc1 | inactive: -16.4% |

| SMILES | activity change, negative = cytotoxicity |
| --- | --- |
| COc1ccc2ncc3c(-c4ccccc4)nn(-c4ccc(C)c(C)c4)c3c2c1 | inactive: 12.2% |
| CC(C)c1cnc2c(c1SCC(=O)c1ccc(Cl)cc1)c(=O)n(C)c(=O)n2C | inactive: -20.9% |
| CC1CN(C(=O)Nc2ccc(C(=O)NCCc3ccc(Cl)cc3)cc2)c2ccccc2S1 (stereo unspecified) | inactive: -7.24% |
| COCCn1c(C)cc(O)c(C(c2ccc(OC)cc2)N2CCCCC2)c1=O (stereo unspecified) | inactive: 2.76% |
| CCOc1ccc(NCc2cccn2-c2nnc(N3CCC(C(=O)NCCc4ccc(OCC)c(OCC)c4)CC3)s2)cc1 | inactive: -21.6% |
| CCCC(=O)Nc1ccc2nc(SCCOc3ccccc3)sc2c1 | inactive: 3.81% |
| CCCN1Cc2cccc(C(=O)Nc3ccccc3F)c2C1=O | inactive: -3.41% |
| Cc1cccc(NC(=O)C(=O)NCC(c2cccnc2)N2CCN(Cc3ccccc3)CC2)c1 (stereo unspecified) | inactive: -15% |
| Cn1c(C(=O)NCCc2ccccc2)cc2cc(S(=O)(=O)N3CCCCC3)ccc21 | inactive: -15.3% |
| Cc1ccccc1NC(=O)CSCn1nnc2c(=O)[nH]c(Cc3ccc(F)cc3)nc21 | inactive: -2.21% |
| COc1ccc(N2CCN(C(=O)Nc3ccc(Cl)cc3)CC2)cc1 | inactive: -1.83% |
| CCc1cccc(-n2nnc(-c3nc(-c4ccc5c(c4)OCO5)no3)c2C)c1 | inactive: -11.9% |
| Cc1cccc(C(=O)NCc2nnc(SCC(=O)Nc3ccccc3F)n2-c2ccccc2)c1 | inactive: 13.9% |
| COc1ccc(NC(=O)CSc2nc(-c3ccccc3)c3ccccc3n2)cc1 | inactive: 0.464% |
| Brc1ccc(-c2csc(-c3nc(-c4ccc(Br)s4)cs3)n2)cc1 | inactive: 0.848% |
| CCOc1ccc(N(CC(=O)NCc2ccc(C)cc2)S(=O)(=O)c2c(C)[nH]c(=O)[nH]c2=O)cc1 | inactive: 9.94% |
| O=C(Nc1ccccc1C(F)(F)F)N1Cc2ccccc2Oc2ncccc21 | inactive: -3.48% |
| CC(NC(=O)c1ccc(Cn2c(SCc3ccccc3)nc3cccnc32)cc1)c1ccccc1 (stereo unspecified) | inactive: -20.6% |
| COc1ccc(CN(C(=O)c2ccc(OCC(C)C)cc2)C2CCS(=O)(=O)C2)cc1 (stereo unspecified) | inactive: -2.79% |
| CC(CCc1ccccc1)NC(=O)Cn1ncc2c3ccccc3n(Cc3cccc(Cl)c3)c2c1=O (stereo unspecified) | inactive: 2.71% |
| CCN1CCN(C(c2cccc(OC)c2)c2c(O)cc(C)n(Cc3ccco3)c2=O)CC1 (stereo unspecified) | inactive: 15.1% |
| CCc1ccc(NC(=O)c2sc3nc(-c4ccccc4)cn3c2C)cc1 | inactive: -8.92% |
| CCN(CC)CCNC(=O)Cn1cnc2sc(C)c(S(=O)(=O)N3CCN(c4ccccc4OC)CC3)c2c1=O | inactive: 7.44% |
| Cc1ccc(NC(=O)Nc2csc3c2CCCC3)c(C)c1 | inactive: 1.72% |

| SMILES | activity change, negative = cytotoxicity |
| --- | --- |
| COc1cccc(NC(=O)CN2C(=O)COc3ccc(S(=O)(=O)N4CCOCC4)cc32)c1 | inactive: 5.26% |
| CN(c1nnc(NC(=O)Nc2ccc(Br)cc2)s1)C1CCCCC1 | inactive: 2.1% |
| COc1ccccc1CNc1ncnc2onc(-c3ccc(Cl)cc3)c12 | inactive: 15.1% |
| NC(=O)C1CCN(C(=O)c2ccccc2NC(=O)c2nsc3ccccc23)CC1 | inactive: -1.31% |
| CCOC(=O)c1c(NC(=O)c2cc(=O)c3c(C)cc(C)cc3o2)sc(C)c1C | inactive: 0.906% |
| Cc1cc(C(=O)Nc2ccc(Cl)cc2)c2c(C)nn(-c3ccccc3)c2n1 | inactive: 5.37% |
| O=C(NCCn1cc(SCc2ccc(C(F)(F)F)cc2)c2ccccc21)c1cccs1 | inactive: 4.83% |
| Cc1ccc2nc(-c3ccc(N4CCOCC4)cc3)c(Nc3ccccc3C)n2c1 | inactive: -17.5% |
| CNC(=O)C1CCC(Cn2c(=O)c3sccc3n(CC(=O)Nc3ccc(C)cc3C)c2=O)CC1 (stereo unspecified) | inactive: 4.61% |
| Cc1cccc(NC(=O)CSc2nc(=O)n(CCN3CCOCC3)c3c2CCC3)c1 | inactive: 7.87% |
| COc1ccc(-n2c(C)nc3c(cnn3-c3ccc(F)cc3)c2=O)cc1 | inactive: 1.35% |
| CCCCN(CC)CCCNC(=O)c1c(C)oc2ncnc(N3CCOCC3)c12 | inactive: 20.3% |
| CCc1nn2c(=O)cc(COC(=O)c3cccc(NC(=O)CCc4ccccc4)c3)nc2s1 | inactive: 16.7% |
| CCc1ccc(C(=O)c2cn(CC(=O)Nc3ccc4c(c3)OCCO4)c3ccc(F)cc3c2=O)cc1 | inactive: 5.22% |
| Cc1ccc(NCc2cccn2-c2nnc(N3CCC(C(=O)NCCc4ccc(Cl)cc4)CC3)s2)cc1 | inactive: -10.9% |
| CCCCc1ccc(-n2nc3cc(C)c(NC(=O)c4ccc(C#N)cc4F)cc3n2)cc1 | inactive: -2.07% |
| COc1cc2c(=O)n(CCC(=O)NCC3CCCO3)c(=O)n(CC(=O)Nc3ccccc3C)c2cc1OC (stereo unspecified) | inactive: 0.423% |
| CCc1nn(CC(=O)NCCc2ccc(OC)cc2OC)c(=O)c2cc3occc3n12 | inactive: -7.63% |
| CCn1cc(/C=C(\NC(=O)c2ccc(OC)cc2)C(=O)NCCCn2ccnc2)c2ccccc21 | inactive: -6.21% |
| COc1ccccc1CNC(=O)C1CCN(c2nc3ccc(Cl)cc3[nH]2)CC1 | inactive: -9.19% |
| Cc1ccc(CNC(=O)CSc2ncc3c(n2)-c2cc(Cl)ccc2N(C)S3(=O)=O)cc1 | inactive: 10.1% |
| COc1cc2cc(CNc3ccccc3)c(=O)n(CC(=O)Nc3cccc(Cl)c3C)c2cc1OC | inactive: -0.328% |
| COc1cc(NC(=O)Cn2c(=O)n(CC3CCC(C(=O)NCCc4ccccc4)CC3)c(=O)c3ccccc32)cc(OC)c1 (stereo unspecified) | inactive: -1.86% |
| COc1cccc(Cn2cc(C(=O)c3ccccc3)c(=O)c3cc4c(cc32)OCO4)c1 | inactive: -0.611% |

| SMILES | activity change, negative = cytotoxicity |
| --- | --- |
| COc1ccc(-n2ncc3c(NCCCOC(C)C)ncnc32)cc1 | inactive: -8.26% |
| CCCCNC(=O)C1CCCN(S(=O)(=O)CCC)C1 (stereo unspecified) | inactive: 7.62% |
| CCOc1ccccc1C1CC(=O)Nc2c1c(=O)n(C)c1ncnn21 (stereo unspecified) | inactive: -1.32% |
| O=C(CCc1nc(CN2CCN(S(=O)(=O)c3ccc(Br)cc3)CC2)no1)N1CCCCC1 | inactive: -20.1% |
| COc1ccc2c(c1)c1c(c(=O)n(CCc3ccccc3)c(=O)n1Cc1cccc(Cl)c1)n2C | inactive: -6.94% |
| COc1ccc(CC(=O)Nc2nc3c(s2)CC(C)CC3)cc1 (stereo unspecified) | inactive: 3.63% |
| Cc1ccc(NC(=O)C2CCCN(S(=O)(=O)c3ccc4[nH]c(=O)ccc4c3)C2)cc1Cl (stereo unspecified) | inactive: -1.64% |
| CCCn1cc(S(=O)(=O)c2ccc(C)cc2)c(=O)c2cc(F)c(N3CCCC3)cc21 | inactive: 3.06% |
| CCOc1ccccc1Nc1ncnc2c1cnn2-c1ccc(C)cc1 | inactive: 2.78% |
| O=C(NCc1cccc(Cl)c1)c1c2c(nc3ccccc13)C(=O)N(C1CCCCC1)C2 | inactive: 18.2% |
| CC(=O)Nc1cccc(NC(=O)c2cc3c(=O)n4cccc(C)c4nc3n2C)c1 | inactive: 8.03% |
| COc1ccc(CCNC(=O)CCc2c(C)nc3c4c(C)cc(C)nc4nn3c2C)cc1OC | inactive: -3.96% |
| CC(=O)c1c(C)oc2ccc(N(C(=O)Oc3ccccc3)S(=O)(=O)c3ccc(Cl)cc3)cc12 | inactive: -2.21% |
| Cc1ccc(Cn2nnc3c(=O)[nH]c(C4CCN(C(=O)Cc5ccccc5F)CC4)nc32)cc1 | inactive: -1.72% |
| Cc1ccc(CNC(=O)C2CCN(S(=O)(=O)N3CCCCC3)CC2)cc1 | inactive: 10.3% |
| CCc1cccc(NS(=O)(=O)c2c(C)[nH]c(=O)[nH]c2=O)c1 | inactive: 1.47% |
| CCOc1ccccc1Nc1nc2ccccc2c2nncn12 | inactive: 0.164% |
| COc1cccc2c1cc1c(=O)n(CC(=O)N3CCN(c4cccc(C)c4C)CC3)nc(C)n12 | inactive: 15.8% |
| COc1ccc(OCC(=O)Nc2ccc(-c3nc4cc(C)cc(C)c4o3)cc2)cc1 | inactive: -23% |
| CC1CCN(S(=O)(=O)c2ccc3c(c2)CCN3C(=O)Nc2ccccc2Br)CC1 | inactive: 6.86% |
| COc1ccc2c(c1)cc(CNc1ccc(OC)c(OC)c1)c(=O)n2CC(=O)Nc1ccccc1C | inactive: 7.32% |
| CCN(CC)c1ccc(NC(=O)c2cccn2-c2nnc(N3CCCCC3)s2)c(C)c1 | inactive: -18.3% |
| Cc1ccc(S(=O)(=O)N2CCN(C(=O)c3cc(-c4ccc(Br)cc4)n[nH]3)CC2)c(C)c1 | inactive: -16.6% |
| Cc1ccc(NC(=O)C(Cc2ccccc2)NS(=O)(=O)c2ccc3c(c2)c(=O)n(C)c(=O)n3C)c(C)c1 (stereo unspecified) | inactive: 14.4% |
